Measured values from the supplement of paper PMC8728848.
This is one part of the list.

Legend:
Assay in all cases: glycan array binding signal (z-score within array); higher = stronger binding
Settings in all cases: glycan notation: IUPAC condensed, linker removed
GalNAc(b1-3)Gal = target: GalNAc(b1-3)Gal
Outline: (§1)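 Columns mapping to the same glycan were averaged after glycan names were converted to IUPAC-condensed notation. The data come from 3228 arrays in the Consortium for Functional Glycomics database, limited to those with an available protein sequence. Binding is reported as a within-array Z-score averaged across arrays of one protein sequence and across linkers.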

[1] = target: GalNAc(b1-3)Gal(a1-4)Gal(b1-4)GlcNAc
Outline: as §1

[2] = target: GalNAc(b1-3)Gal(a1-4)Gal(b1-4)GlcNAc(b1-3)Gal(b1-4)Glc
Outline: as §1

[3] = target: GalNAc(b1-3)Gal(a1-6)Gal(b1-4)Glc
Outline: as §1

GalNAc(b1-3)GalNAc = target: GalNAc(b1-3)GalNAc
Outline: as §1

GalNAc(b1-3)GlcNAc = target: GalNAc(b1-3)GlcNAc
Outline: as §1

GalNAc(b1-4)Gal(b1-4)Glc = target: GalNAc(b1-4)Gal(b1-4)Glc
Outline: as §1

GalNAc(b1-4)GlcNAc = target: GalNAc(b1-4)GlcNAc
Outline: as §1

[4] = target: GalNAc(b1-4)GlcNAc(b1-2)Man
Outline: as §1

[5] = target: GalNAc(b1-4)GlcNAc(b1-2)Man(a1-3)[GalNAc(b1-4)GlcNAc(b1-2)Man(a1-6)]Man(b1-4)GlcNAc(b1-4)GlcNAc
Outline: as §1

[6] = target: GalNAc(b1-4)GlcNAc(b1-3)GalNAc(b1-4)GlcNAc
Outline: as §1

GalNAc(b1-4)GlcNAc6S = target: GalNAc(b1-4)GlcNAc6S
Outline: as §1

GalNAc(b1-6)GalNAc = target: GalNAc(b1-6)GalNAc
Outline: as §1

GalNAc3S(b1-4)GlcNAc = target: GalNAc3S(b1-4)GlcNAc
Outline: as §1

GalNAc3S(b1-4)GlcNAc3S = target: GalNAc3S(b1-4)GlcNAc3S
Outline: as §1

[7] = target: GalNAc3S(b1-4)[Fuc(a1-3)]GlcNAc
Outline: as §1

GalNAc4S6S(b1-4)GlcNAc = target: GalNAc4S6S(b1-4)GlcNAc
Outline: as §1

GalNAc6S(b1-4)GlcNAc = target: GalNAc6S(b1-4)GlcNAc
Outline: as §1

Glc(a1-4)Glc = target: Glc(a1-4)Glc
Outline: as §1

[8] = target: Glc(a1-4)Glc(a1-4)Glc(a1-4)Glc
Outline: as §1

Glc(a1-6)Glc(a1-6)Glc = target: Glc(a1-6)Glc(a1-6)Glc
Outline: as §1

[9] = target: Glc(a1-6)Glc(a1-6)Glc(a1-6)Glc
Outline: as §1

Glc(b1-4)Glc = target: Glc(b1-4)Glc
Outline: as §1

Glc(b1-6)Glc = target: Glc(b1-6)Glc
Outline: as §1

GlcA(b1-3)Gal = target: GlcA(b1-3)Gal
Outline: as §1

GlcA(b1-3)GlcNAc = target: GlcA(b1-3)GlcNAc
Outline: as §1

GlcA(b1-6)Gal = target: GlcA(b1-6)Gal
Outline: as §1

[10] = target: GlcA3S(b1-3)Gal(b1-4)GlcNAc(b1-2)Man
Outline: as §1

[11] = target: GlcA3S(b1-3)Gal(b1-4)GlcNAc(b1-3)Gal(b1-4)Glc
Outline: as §1

[12] = target: GlcNAc(a1-3)Gal(b1-4)GlcNAc
Outline: as §1

[13] = target: GlcNAc(a1-4)Gal(b1-3)GlcNAc
Outline: as §1

[14] = target: GlcNAc(a1-4)Gal(b1-4)GalNAc
Outline: as §1

[15] = target: GlcNAc(a1-4)Gal(b1-4)GlcNAc
Outline: as §1

[16] = target: GlcNAc(a1-4)Gal(b1-4)GlcNAc(b1-3)Gal(b1-4)Glc
Outline: as §1

[17] = target: GlcNAc(a1-4)Gal(b1-4)GlcNAc(b1-3)Gal(b1-4)GlcNAc
Outline: as §1

[18] = target: GlcNAc(a1-4)Gal(b1-4)GlcNAc(b1-3)Gal(b1-4)GlcNAc(b1-3)Gal(b1-4)GlcNAc
Outline: as §1

[19] = target: GlcNAc(a1-4)Gal(b1-4)GlcNAc(b1-3)Gal(b1-4)[Fuc(a1-3)]GlcNAc(b1-3)Gal(b1-4)[Fuc(a1-3)]GlcNAc
Outline: as §1

[20] = target: GlcNAc(a1-6)Gal(b1-4)GlcNAc
Outline: as §1

B1: GS13455A-bfa-343-25-343 (Bacteroides fragilis) (protein)
chain: KDEIQIVDQDTSWQMDNKYIEEDIREQLGIDPFTDLVYLGYYGNPYTQLEAINDLVNTTLVGKNELSFKVKVTKPYKEDIKVNLMKEDKLVTDFPEMAEGIPLFPSENCTFEGGVLKAGELETTVKLTLKDVEKLNNLSGYVMAIKLTMEGSHEHLAIARTRSSYFVKLNLSIRLDNIDSSNKKIEGKGFNKEISFKSDIRPDKLGSLNDGNFTANNWYTSNANNYLTIILPEKQSLKGFRLDTNTSPSGSYMLKSCRVMVETPDGNWVNHGVFDRKSMDGIAYISFKKPVECTKVRFENMMAFNGRFSVDVNEVTAFR
glycan array binding signal (z-score) (GalNAc(b1-3)Gal): 0.005 | glycan array binding signal (z-score) [1]: 1.43 | glycan array binding signal (z-score) [2]: -0.285 | glycan array binding signal (z-score) [3]: -0.371 | glycan array binding signal (z-score) (GalNAc(b1-3)GalNAc): 0.329 | glycan array binding signal (z-score) (GalNAc(b1-3)GlcNAc): -0.525 | glycan array binding signal (z-score) (GalNAc(b1-4)Gal(b1-4)Glc): 1.08 | glycan array binding signal (z-score) (GalNAc(b1-4)GlcNAc): -0.125 | glycan array binding signal (z-score) [4]: -0.619 | glycan array binding signal (z-score) [5]: 1.75 | glycan array binding signal (z-score) [6]: 1.21 | glycan array binding signal (z-score) (GalNAc(b1-4)GlcNAc6S): -0.178 | glycan array binding signal (z-score) (GalNAc(b1-6)GalNAc): 0.191 | glycan array binding signal (z-score) (GalNAc3S(b1-4)GlcNAc): -0.39 | glycan array binding signal (z-score) (GalNAc3S(b1-4)GlcNAc3S): -0.507 | glycan array binding signal (z-score) [7]: -0.412 | glycan array binding signal (z-score) (GalNAc4S6S(b1-4)GlcNAc): -0.138 | glycan array binding signal (z-score) (GalNAc6S(b1-4)GlcNAc): -0.162 | glycan array binding signal (z-score) (Glc(a1-4)Glc): -0.288 | glycan array binding signal (z-score) [8]: 0.002 | glycan array binding signal (z-score) (Glc(a1-6)Glc(a1-6)Glc): -0.516 | glycan array binding signal (z-score) [9]: -0.604 | glycan array binding signal (z-score) (Glc(b1-4)Glc): -0.247 | glycan array binding signal (z-score) (Glc(b1-6)Glc): -0.811 | glycan array binding signal (z-score) (GlcA(b1-3)Gal): -0.323 | glycan array binding signal (z-score) (GlcA(b1-3)GlcNAc): 0.404 | glycan array binding signal (z-score) (GlcA(b1-6)Gal): 0.968 | glycan array binding signal (z-score) [10]: -0.005 | glycan array binding signal (z-score) [11]: -0.631 | glycan array binding signal (z-score) [12]: -0.633 | glycan array binding signal (z-score) [13]: -0.198 | glycan array binding signal (z-score) [14]: -0.142 | glycan array binding signal (z-score) [15]: -1.13 | glycan array binding signal (z-score) [16]: 0.059 | glycan array binding signal (z-score) [17]: -0.573 | glycan array binding signal (z-score) [18]: -0.41 | glycan array binding signal (z-score) [19]: 1.64 | glycan array binding signal (z-score) [20]: -0.399
